Consider nine compounds from the supplement of paper PMC12355420.

Structures can show the parent of a compound that is named as a salt. Some of the results follow. Rule as the data show it: active = 0.5 or less and inactive = the rest. Most values come without repeats; read them as rough.

What all share (details): 50 µM; 24 h
Test [1] has as its system HeLa VPS33A reporter cells. Description: relative cell viability (CellMask signal) vs DMSO (fraction of DMSO); higher = less cytotoxic.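 Also: primary screen of an FDA-approved drug library in HeLa reporter cells in 96-well format, CellMask signal normalized to DMSO-treated wells set as 1, under 0.5 deemed highly cytotoxic.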
Test [2] deals with HeLa VPS33A R498W KI + HA-SDC1-FLAG. As to the kind of experiment: relative GAG core protein HA-SDC1 amount per cell number vs DMSO (fraction of DMSO); higher = more SDC1 (GAG core protein).
For test [3], the system named is HeLa VPS33A KO + NLuc-VPS33A R498W. As to the kind of experiment: relative mutant VPS33A R498W amount (NanoLuc luminescence) vs DMSO (fraction of DMSO); HeLa model of a glycosaminoglycan (GAG) storage disease; KI is knock-in and KO knock-out; SDC1 is syndecan 1; higher = higher mutant VPS33A level.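 Also: screen of an FDA-approved drug library, NanoLuc luminescence read after lysing the treated cells, taken as a measure of mutant VPS33A protein stability.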
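For relative GAG core protein HA-SDC1 amount per cell number vs DMSO in this document: HA-SDC1 level read out by In-Cell Western staining with an anti-HA antibody against the N-terminal tag, screening FDA-approved library drugs.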

In test [1], `CC[C@@]1(O)C(=O)OCc2c1cc1n(c2=O)Cc2cc3cc(O)ccc3nc2-1` [(S)-10-Hydroxycamptothecin] came in with a relative cell viability of 1.14. Besides, the “relative GAG core protein HA-SDC1 amount per cell number” value in test [2] is inactive: 0.547. In test [3], the “relative mutant VPS33A R498W amount” value is 0.572.
As to `CCCCN1CCCCC1C(=O)Nc1c(C)cccc1C` (configuration not stated) [Bupivacaine HCl], the relative cell viability in test [1] is 1.18. Besides, the “relative GAG core protein HA-SDC1 amount per cell number” value in test [2] was inactive: 0.968. In test [3], the “relative mutant VPS33A R498W amount” value amounted to 1.15.
For `NC(=O)CC[C@@H](N)C(=O)O` [D-Glutamine], in test [1], the relative cell viability came out at 0.99. The “relative GAG core protein HA-SDC1 amount per cell number” value in test [2] is inactive: 1.07. Moreover, the “relative mutant VPS33A R498W amount” value in test [3] stood at 1.21.
Taken in the same sequence, the figures for `Nc1cccc2c1CN(C1CCC(=O)NC1=O)C2=O` (configuration not stated) [Lenalidomide (CC-5013)] were 1.28, inactive: 1.01 and 0.8.
On the same counts, the results for `C[C@]12CCC(=O)C=C1[C@@H]1C[C@@H]1[C@H]1[C@@H]3[C@@H]4C[C@@H]4[C@@]4(CCC(=O)O4)[C@@]3(C)CC[C@@H]12` [Drospirenone] are 1.28, inactive: 0.619 and 1.12.
`Cc1ccc(O)cc1` [p-Cresol] displayed a relative cell viability in test [1] of 1.03. For the same compound, the “relative GAG core protein HA-SDC1 amount per cell number” value in test [2] is inactive: 1.04. In test [3], the “relative mutant VPS33A R498W amount” value was determined as 1.06.
On the same counts, the results for `O=C[C@H](O)[C@@H](O)[C@H](O[C@H]1O[C@H](CO)[C@@H](O[C@H]2O[C@H](CO)[C@@H](O)[C@H](O)[C@H]2O)[C@H](O)[C@H]1O)[C@H](O)CO` [Maltotriose] are 1.04, inactive: 0.838 and 1.44.
Compound `CC(=O)SCC(Cc1ccccc1)C(=O)NCC(=O)OCc1ccccc1` (configuration not stated) [Racecadotril] came in with a relative cell viability in test [1] of 0.908. The “relative GAG core protein HA-SDC1 amount per cell number” value in test [2] is inactive: 1.05. In test [3], the “relative mutant VPS33A R498W amount” value came out at 1.29.
With `CO[C@H]1/C=C/O[C@@]2(C)Oc3c(C)c(O)c4c(O)c(c5c(nc6cc(C)ccn65)c4c3C2=O)NC(=O)/C(C)=C\C=C\[C@H](C)[C@H](O)[C@@H](C)[C@@H](O)[C@@H](C)[C@H](OC(C)=O)[C@@H]1C` [Rifaximin (Xifaxan)], the relative cell viability in test [1] is 1.04. In addition, the “relative GAG core protein HA-SDC1 amount per cell number” value in test [2] is active: 0.18. Moreover, in test [3], the “relative mutant VPS33A R498W amount” value stood at 2.52.
